Test results: PubChem BioAssay AID1508624 (National Center for Advancing Translational Sciences (NCATS), 2021)
Out of some 48,000 compounds screened, about 120 (0.25%) were called active. Another 4% or so got no clear call; they are omitted. Calls follow the shape of the dose curve; as a rule, active = well fitted activation curve with a large enough effect; inconclusive = small, poorly fitted or top-dose-only effect, or another doubt; inactive = no such curve, though single readings can be large or run the other way. Some of the results follow.

Test: Primary qHTS for Identification of Small Molecule Activators of Huntingtin-Antisense Promoter Activity; also: nearly all actives have a fitted effect of over 55% in size
Conditions: HEK293 HTT-AS promoter firefly luciferase reporter (activity 0% = vehicle and -100% = no light), 24 h; series mostly up to 57.5 µM; activity change, positive = activation: at the top concentration
Outline: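 HEK293 cells carrying firefly luciferase reporters were seeded at 2,500 per well in Opti-MEM and cultured for 24 h. They were then treated with compounds at up to 57.5 uM final for 24 h at 37 degrees C before Dual-Glo luminescence readout.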

Activity change, positive = activation, inactive:
COc1ccccc1NC(=O)c1oc2ccccc2c1NC(=O)c1cccc(OC)c1OC -37.7%
CCC(Oc1ccccc1)C(=O)Nc1cc(-c2cccc(C)c2)nn1-c1ccccc1 (centres undefined) 5.42%
O=C(O)CCNc1cc(N2CCc3ccccc3CC2)nc(-c2ccccn2)n1 -10.2%
COc1ccc(-n2c(C)c(C(C)=O)c3cc(OC(=O)COc4ccccc4)ccc32)cc1 -22.8%
CCCS(=O)(=O)N1CC(=O)N(c2cccc(Cl)c2C)C(C)(C(=O)NC2CCCC2)C1 (centres undefined) -10.4%
Cc1cc(-c2ccc(C)c(S(=O)(=O)NCc3cccc(Br)c3)c2)on1 -32.4%
Cc1cc(C)cc(OCC(=O)N(Cc2cccs2)c2ccc(Cl)cc2)c1 -32.8%
CCCCCn1c(CCNC(=O)c2ccc(F)cc2)nc2ccccc21 -21.3%
Fc1ccc(-c2nn(-c3ccccc3Cl)c3c2cnc2ccccc23)cc1 -28.1%
Cc1ccc2onc(CC(=O)N3CCN(c4cc(Cl)ccc4C)CC3)c2c1 -36.6%
COc1ccc(-n2nc(C(=O)N3CCN(c4cccc(C)c4C)CC3)c3c4ccccc4n(C)c3c2=O)cc1Cl -15.1%
Cc1ccc(CNC(=O)Cc2c(C)c3c(cc(C)c4c(C)coc43)oc2=O)cc1 -6.37%
COc1cccc(CNC(=O)Cn2ncn3nc(-c4cccs4)cc3c2=O)c1OC 8.26%
CC=CC1=C(C(=O)O)N2C(=O)[C@H](NC(=O)[C@H](N)c3ccc(O)cc3)[C@@H]2SC1 -49%
COc1cccc(C(=O)c2c(N)c(-c3nc(-c4ccccc4)cs3)c3ccccn23)c1 3.4%
Cc1cccc(-n2c(=O)c3c(c4cc(C)ccc4n3C)n(CC(=O)N3CCCC3)c2=O)c1 -21.9%
CNC(=O)[C@H](CC1=CN=C2C=CCC=C12)NC(=O)[C@@H](CC(=O)NO)CC(C)C -21.4%
O=C(CN1C(=O)COc2ccccc21)NCCc1ccc(Cl)cc1 -7.09%
CCOc1ccc(N(CC)S(=O)(=O)N2CCCC(C(=O)Nc3ccc(C(C)=O)cc3)C2)cc1 (centres undefined) -26.2%
Cc1ccc(CNC(=O)c2ccc(NC(=O)N3CCSc4ncccc43)cc2)cc1 -4.36%
CCc1ccc(-n2c(=O)c3c4c(sc3n(CC(=O)N3CCCCC3CC)c2=O)CCC4)cc1 (centres undefined) -26.8%
Cc1ccc(NC(=O)Cn2c(=O)n(Cc3nc(C)no3)c(=O)c3ccccc32)c(Cl)c1 -8.26%
Cc1cccc(C)c1OCCCn1c(CCNC(=O)C2CCCCC2)nc2ccccc21 -33.6%
CCc1ccc(NC(=O)CN2C(=O)C(c3ccc(Cl)cc3)=NC23CCCCC3)cc1 -32.6%
CCOc1ccccc1NC(=O)c1nc(SC(C)C)ncc1Cl 0%
Cc1c(CNC2CCCCC2)c(C(=O)O)c(C)n1Cc1cccc(Cl)c1 -18%
Cc1c(C(=O)Nc2cccc(Cl)c2)sc2nc3n(c(=O)c12)N=C(c1cccc(Br)c1)CS3 -28%
Cc1ccccc1Nc1c(-c2cc(Br)ccc2F)nc2ccccn12 -15.9%
CCOC(=O)C1CCC(CN(Cc2ccccc2)S(=O)(=O)c2ccc(Br)cc2)CC1 (centres undefined) -11%
Cc1cccc(/C=C(\C#N)c2nc3ccccc3c(=O)[nH]2)c1 -17.3%
COc1cc(NC(=O)CCS(=O)(=O)c2ccc3c(c2)CC(=O)N3C)cc(OC)c1OC 3.73%
CCOc1ccc(-c2cc(C(=O)Oc3ccc(C#N)cc3)no2)cc1 3.79%
COc1ccc(/C=C/c2nc(C#N)c(NCc3ccc(F)cc3)o2)cc1OC -33.1%
COc1ccc(N2CCN(CCCNC(=O)c3cc(Nc4ccc(OC)cc4OC)nc4ccccc34)CC2)cc1 -39%
O=C(CCS(=O)(=O)c1ccccc1)N(Cc1cccnc1)c1nc2ccc(Cl)cc2s1 2.21%
CCCN1Cc2cccc(C(=O)Nc3ccc(C(C)=O)cc3)c2C1=O -16.4%
CC1=C(c2ccc(Cl)cc2)S(=O)(=O)NC1=NCCCN1CCN(c2cc(C)ccc2C)CC1 -51.8%
CCC(CC)C(=O)OCc1cc(=O)n2nc(C3CC3)sc2n1 2.22%
Cn1cc(-c2cc3n(n2)CCC(=O)N3CCCC(=O)NCc2ccc(Cl)cc2)c2ccccc21 -49.7%
O=C(CCCn1c(=O)c2cccn2c2ccccc21)Nc1cc(C(F)(F)F)ccc1Cl -17.1%
CC1C(=O)Nc2ccc(S(=O)(=O)N3CCCCC3)cc2NC1=O (centres undefined) -22.4%
COc1ccc(Cn2c(CCC(=O)Nc3cc(OC)c(OC)c(OC)c3)nc3cccnc32)cc1 -22.7%
CCOC(=O)c1cc(-c2ccc(OC)cc2)n(CCC(=O)Nc2ccccc2OC)c1C -26.3%
O=C(CSc1nccn1Cc1ccccc1)NCc1ccco1 16.6%
CCOc1ccccc1NC(=O)CN1C(=O)COc2ccc(S(=O)(=O)N3CCOCC3)cc21 -3.49%
CCOc1ccc(NCc2cccn2-c2nnc(N3CCC(C(=O)NCC(C)c4ccccc4)CC3)s2)cc1 (centres undefined) -37.6%
CCN(c1ccccc1)S(=O)(=O)c1ccc(NC(=O)c2nc(SC)ncc2Cl)cc1 -39.4%
CCN(CC)c1ccc(NC(=O)C2CCN(c3nnc(-n4cccc4)s3)CC2)c(C)c1 -19.4%
O=c1c2sc3ccccc3c2n(Cc2cccc(F)c2)c(=O)n1Cc1ccccc1 -19.4%
CCOC(=O)Cn1c(=O)n(CC2CCCO2)c2nc(-c3ccccc3OC)nc(C(N)=O)c21 (centres undefined) -2.1%
O=C(NC1CC(=O)N(c2ccc(F)cc2)C1)c1ccc(S(=O)(=O)N2CCCCC2)cc1 (centres undefined) -23.9%
O=C(NCc1cccs1)c1ccc2c(=O)n3nc(Nc4ccccc4)sc3nc2c1 -17%
Cc1ccc2c(c1Br)C(O)(CC(=O)c1ccc(F)cc1)C(=O)N2 (centres undefined) -19.8%
CCOC(=O)c1ccc(N2C(=O)c3[nH]nc(-c4ccccc4)c3C2c2ccc(CC)cc2)cc1 (centres undefined) -53.7%
Cc1cccc2sc(N(Cc3cccnc3)C(=O)CCc3ccccc3)nc12 -21.3%
Cc1c(Cl)cccc1NC(=O)CC1Oc2ccccc2NC1=O (centres undefined) -4.6%
CCOc1ccccc1C(=O)N(Cc1ccco1)Cc1ccco1 -14%
COc1ccccc1CNC(=O)C1CCCN(S(=O)(=O)c2ccc3c(c2)oc(=O)n3C)C1 (centres undefined) -18.4%
O=C(Cn1c(=O)n(Cc2nc(-c3ccccc3)no2)c(=O)c2ccccc21)Nc1cccc(C(F)(F)F)c1 -62.9%
O=C(c1ccc2c(c1)N(Cc1ccccc1F)C(=O)c1ccccc1S2(=O)=O)N1CCC(Cc2ccccc2)CC1 -12.8%
COc1ccc(-c2cc(C(=O)Nc3c(C(=O)c4ccc(C)cc4)oc4ccccc34)no2)cc1 3.34%
CCn1nc(C)c2c(-c3ccccc3)cc(=O)n(C(C)C(=O)NCCC(C)C)c21 (centres undefined) -25.6%
CC(=O)Nc1ccc(NC(=O)CCc2nc3cccnc3n2Cc2cccs2)cc1 -16.3%
CCc1ccc(OC(C)C(=O)N2CCC(c3nc4ccccc4o3)CC2)cc1 (centres undefined) -37.6%
Cc1ccc(C(=O)Nc2ccc3c(c2)n(C)c(=O)c(=O)n3C)cc1 -0.964%
COc1ccc(CNS(=O)(=O)c2ccc(N3CCCCS3(=O)=O)cc2)cc1 -33.7%
Cc1ccc(NC(=O)Cn2nc(C(=O)Nc3ccc(C)cc3)ccc2=O)cc1 -6.1%
CC1CCN(Cc2c(O)ccc3c(=O)c(Oc4ccccc4Cl)c(C(F)(F)F)oc23)CC1 -8.21%
O=C(COc1ccccc1F)Nc1ccc2nc(SCCOc3ccccc3)sc2c1 -19.7%
COc1ccc(NC(=O)CC2C(=O)N(c3cccc(OC)c3)C(=O)N2CCc2cccs2)cc1 (centres undefined) -7.62%
Cc1ccc(NC(=O)Cn2c(=O)n(Cc3nc(-c4ccccc4)no3)c(=O)c3cc4c(cc32)OCO4)cc1F -19.9%
O=C(Nc1cc(-c2nc3ccccc3o2)ccc1Cl)c1sc2c([N+](=O)[O-])cccc2c1Cl 7.29%
CC(C)(C)OC(=O)N1CCC(c2c(C(=O)NCc3cccc(Cl)c3)cnn2-c2ccc(F)cc2)CC1 -6.87%
COc1cc(/C=C(\C#N)C(=O)NCC2CCCO2)ccc1O (centres undefined) 10.4%
CCc1ccccc1NC(=O)CSc1nc(-c2cccc(Cl)c2)nc2c1Cc1c(CO)cnc(C)c1O2 -12.7%
Cc1ccccc1C(=O)Nc1nnc(S(=O)(=O)N(C)Cc2ccccc2)s1 -25.7%
COc1ccc(-n2c(-c3ccc(C)cc3)cc3c2CC(C)(C)CC3=O)cc1Cl -5.19%
CC1CCN(C(=O)Cn2c(=O)n(CC3CCC(C(=O)NC(C)C)CC3)c(=O)c3sccc32)CC1 (centres undefined) -9.98%
O=C(NCCCN1CCCCC1)c1sc2ncccc2c1-n1cccc1 12.1%
COc1ccc(-c2nc(SCC(=O)NC3CCCC3)c(-c3ccc(F)cc3)[nH]2)cc1 -29%
Cc1ccc(C(=O)c2cc(O)c(O)c([N+](=O)[O-])c2)cc1
Cc1ccc(CCNS(=O)(=O)c2cc(-c3cc(C)no3)ccc2C)cc1 -25.1%
O=C(NC1CC(=O)N(c2cccc(F)c2)C1)c1cccs1 (centres undefined) -5.27%
CCOc1ccc(C(=O)NCc2ccc3c(c2)CCN3C(=O)c2ccc(Cl)cc2)cc1 6.28%
Cc1cccc(-n2ncc(C(=O)N3CCOCC3)c2C2CCN(C(=O)OC(C)(C)C)CC2)c1 0.247%
CC(C)N(C(=O)Cn1cc(SCC(=O)Nc2ccccc2F)c2ccccc21)C(C)C -31.8%
CC(C)C(=O)Nc1ccc2nc(SCC(=O)N3CCCC3)sc2c1 7.71%
CCCN(C(=O)c1cc2c(=O)oc3ccccc3c2s1)c1ccc(CC)cc1 -13.1%
CCc1ccc(OCC(=O)NC(Cc2c[nH]c3ccccc23)C(=O)O)cc1 (centres undefined) 4.45%
Cc1c(Cl)cccc1NC(=O)N1CCN(C(=O)c2nsc3ccccc23)CC1 -20.5%
Cc1ccccc1Nc1cc(C(=O)NCCCN2CCN(c3cccc(Cl)c3)CC2)c2ccccc2n1 -40.2%
CCc1ccc(NC(=O)c2ccc(CN3CC(=O)N4CCCCC4C3=O)cc2)cc1 (centres undefined) -2.37%
Cc1ccc(C(C)C)c(OCCSc2nc(-c3ccccc3F)nc3cc(=O)[nH]n23)c1 2.47%
CCOc1ccc(CCNC(=O)C2CCN(C(=O)N3CC(CC)Oc4ccccc43)CC2)cc1 (centres undefined) -12.9%
